# Laboratory results from the supplement of paper PMC8728848.
# This is one part of the list.
# What was measured:
# Assay in all cases: glycan array binding signal (z-score within array); higher = stronger binding
# Conditions in all cases: glycan notation: IUPAC condensed, linker removed
# [1] = target: Neu5Ac(a2-3)[Neu5Ac(a2-6)]GalNAc
# Outline: (§1)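 Glycan array binding is given as a within-array Z-score, which can be read as non-binding when negative. The arrays, 3228 of them, came from the Consortium for Functional Glycomics database and were retained only where the protein sequence was available. Z-scores were averaged across arrays of the same protein sequence at different concentrations or buffers and across linkers.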
# [2] = target: Neu5Ac(a2-6)Gal
# Outline: as §1
# [3] = target: Neu5Ac(a2-6)Gal(b1-3)GlcNAc(b1-3)[Gal(b1-4)GlcNAc(b1-6)]Gal(b1-4)Glc
# Outline: as §1
# [4] = target: Neu5Ac(a2-6)Gal(b1-4)Glc
# Outline: as §1
# [5] = target: Neu5Ac(a2-6)Gal(b1-4)GlcNAc
# Outline: as §1
# [6] = target: Neu5Ac(a2-6)Gal(b1-4)GlcNAc(b1-2)Man
# Outline: as §1
# [7] = target: Neu5Ac(a2-6)Gal(b1-4)GlcNAc(b1-2)Man(a1-3)Man(b1-4)GlcNAc(b1-4)GlcNAc
# Outline: as §1
# [8] = target: Neu5Ac(a2-6)Gal(b1-4)GlcNAc(b1-2)Man(a1-3)[Gal(b1-4)GlcNAc(b1-2)Man(a1-6)]Man(b1-4)GlcNAc(b1-4)GlcNAc
# Outline: as §1
# [9] = target: Neu5Ac(a2-6)Gal(b1-4)GlcNAc(b1-2)Man(a1-3)[GlcNAc(b1-2)Man(a1-6)]Man(b1-4)GlcNAc(b1-4)GlcNAc
# Outline: as §1
# [10] = target: Neu5Ac(a2-6)Gal(b1-4)GlcNAc(b1-2)Man(a1-3)[GlcNAc(b1-4)][Neu5Ac(a2-6)Gal(b1-4)GlcNAc(b1-2)Man(a1-6)]Man(b1-4)GlcNAc(b1-4)GlcNAc
# Outline: as §1
# [11] = target: Neu5Ac(a2-6)Gal(b1-4)GlcNAc(b1-2)Man(a1-3)[Man(a1-6)]Man(b1-4)GlcNAc(b1-4)GlcNAc
# Outline: as §1
# [12] = target: Neu5Ac(a2-6)Gal(b1-4)GlcNAc(b1-2)Man(a1-3)[Neu5Ac(a2-3)Gal(b1-4)GlcNAc(b1-2)Man(a1-6)]Man(b1-4)GlcNAc(b1-4)GlcNAc
# Outline: as §1
# [13] = target: Neu5Ac(a2-6)Gal(b1-4)GlcNAc(b1-2)Man(a1-3)[Neu5Ac(a2-6)Gal(b1-4)GlcNAc(b1-2)Man(a1-6)]Man(b1-4)GlcNAc(b1-4)GlcNAc
# Outline: as §1
# [14] = target: Neu5Ac(a2-6)Gal(b1-4)GlcNAc(b1-2)Man(a1-3)[Neu5Ac(a2-6)Gal(b1-4)GlcNAc(b1-2)Man(a1-6)]Man(b1-4)GlcNAc(b1-4)[Fuc(a1-6)]GlcNAc
# Outline: as §1
# [15] = target: Neu5Ac(a2-6)Gal(b1-4)GlcNAc(b1-2)Man(a1-6)Man(b1-4)GlcNAc(b1-4)GlcNAc
# Outline: as §1
# [16] = target: Neu5Ac(a2-6)Gal(b1-4)GlcNAc(b1-2)Man(a1-6)[Gal(b1-4)GlcNAc(b1-2)Man(a1-3)]Man(b1-4)GlcNAc(b1-4)GlcNAc
# Outline: as §1
# [17] = target: Neu5Ac(a2-6)Gal(b1-4)GlcNAc(b1-2)Man(a1-6)[GlcNAc(b1-2)Man(a1-3)]Man(b1-4)GlcNAc(b1-4)GlcNAc
# Outline: as §1
# [18] = target: Neu5Ac(a2-6)Gal(b1-4)GlcNAc(b1-2)Man(a1-6)[Man(a1-3)]Man(b1-4)GlcNAc(b1-4)GlcNAc
# Outline: as §1
# [19] = target: Neu5Ac(a2-6)Gal(b1-4)GlcNAc(b1-2)[Neu5Ac(a2-6)Gal(b1-4)GlcNAc(b1-4)]Man(a1-3)[GlcNAc(b1-4)][Neu5Ac(a2-6)Gal(b1-4)GlcNAc(b1-2)[Neu5Ac(a2-6)Gal(b1-4)GlcNAc(b1-6)]Man(a1-6)]Man(b1-4)GlcNAc(b1-4)GlcNAc
# Outline: as §1
# [20] = target: Neu5Ac(a2-6)Gal(b1-4)GlcNAc(b1-2)[Neu5Ac(a2-6)Gal(b1-4)GlcNAc(b1-4)]Man(a1-3)[GlcNAc(b1-4)][Neu5Ac(a2-6)Gal(b1-4)GlcNAc(b1-4)Man(a1-6)]Man(b1-4)GlcNAc(b1-4)GlcNAc
# Outline: as §1
# [21] = target: Neu5Ac(a2-6)Gal(b1-4)GlcNAc(b1-2)[Neu5Ac(a2-6)Gal(b1-4)GlcNAc(b1-6)]Man(a1-6)[Neu5Ac(a2-6)Gal(b1-4)GlcNAc(b1-2)Man(a1-3)][GlcNAc(b1-4)]Man(b1-4)GlcNAc(b1-4)GlcNAc
# Outline: as §1
# [22] = target: Neu5Ac(a2-6)Gal(b1-4)GlcNAc(b1-3)Gal(b1-3)GlcNAc
# Outline: as §1
# [23] = target: Neu5Ac(a2-6)Gal(b1-4)GlcNAc(b1-3)Gal(b1-4)GlcNAc
# Outline: as §1
# [24] = target: Neu5Ac(a2-6)Gal(b1-4)GlcNAc(b1-3)Gal(b1-4)GlcNAc(b1-2)Man(a1-3)[Neu5Ac(a2-6)Gal(b1-4)GlcNAc(b1-3)Gal(b1-4)GlcNAc(b1-2)Man(a1-6)]GalNAc
# Outline: as §1
# [25] = target: Neu5Ac(a2-6)Gal(b1-4)GlcNAc(b1-3)Gal(b1-4)GlcNAc(b1-3)Gal(b1-4)GlcNAc
# Outline: as §1
# [26] = target: Neu5Ac(a2-6)Gal(b1-4)GlcNAc(b1-3)Gal(b1-4)GlcNAc(b1-3)Gal(b1-4)GlcNAc(b1-2)Man(a1-3)[Neu5Ac(a2-6)Gal(b1-4)GlcNAc(b1-3)Gal(b1-4)GlcNAc(b1-3)Gal(b1-4)GlcNAc(b1-2)Man(a1-6)]GalNAc
# Outline: as §1
# [27] = target: Neu5Ac(a2-6)Gal(b1-4)GlcNAc(b1-3)Gal(b1-4)GlcNAc(b1-3)GalNAc
# Outline: as §1
# [28] = target: Neu5Ac(a2-6)Gal(b1-4)GlcNAc(b1-3)Gal(b1-4)GlcNAc(b1-3)[Neu5Ac(a2-6)Gal(b1-4)GlcNAc(b1-3)Gal(b1-4)GlcNAc(b1-6)]GalNAc
# Outline: as §1
# [29] = target: Neu5Ac(a2-6)Gal(b1-4)GlcNAc(b1-3)Gal(b1-4)GlcNAc(b1-6)[Gal(b1-3)]GalNAc
# Outline: as §1
# [30] = target: Neu5Ac(a2-6)Gal(b1-4)GlcNAc(b1-3)Gal(b1-4)[Fuc(a1-3)]GlcNAc(b1-3)Gal(b1-4)[Fuc(a1-3)]GlcNAc
# Outline: as §1
# [31] = target: Neu5Ac(a2-6)Gal(b1-4)GlcNAc(b1-3)GalNAc
# Outline: as §1
# [32] = target: Neu5Ac(a2-6)Gal(b1-4)GlcNAc(b1-3)[Neu5Ac(a2-6)Gal(b1-4)GlcNAc(b1-6)]GalNAc
# Outline: as §1
# [33] = target: Neu5Ac(a2-6)Gal(b1-4)GlcNAc(b1-6)GalNAc
# Outline: as §1
# [34] = target: Neu5Ac(a2-6)Gal(b1-4)GlcNAc(b1-6)[Gal(b1-3)GlcNAc(b1-3)]Gal(b1-4)Glc
# Outline: as §1
# [35] = target: Neu5Ac(a2-6)Gal(b1-4)GlcNAc(b1-6)[Gal(b1-3)]GalNAc
# Outline: as §1
# [36] = target: Neu5Ac(a2-6)Gal(b1-4)GlcNAc6S
# Outline: as §1
# [37] = target: Neu5Ac(a2-6)GalNAc
# Outline: as §1
# [38] = target: Neu5Ac(a2-6)GalNAc(b1-4)GlcNAc
# Outline: as §1
binder,measurement,setting,value
"MGL1 (Mus musculus), P49300 (protein) MIYENLQNSRIEEKTQEPGKAPSQSFLWRILSWTHLLLFSLGLSLLLLVVVSVIGSQNSQLRRDLGTLRATLDNTTSKIKAEFQSLDSRADSFEKGISSLKVDVEDHRQELQAGRDLSQKVTSLESTVEKREQALKTDLSDLTDHVQQLRKDLKALTCQLANLKNNGSEVACCPLHWTEHEGSCYWFSESEKSWPEADKYCRLENSHLVVVNSLEEQNFLQNRLANVVSWIGLTDQNGPWRWVDGTDFEKGFKNWAPLQPDNWFGHGLGGGEDCAHITTGGPWNDDVCQRTFRWICEMKLAKES",glycan array binding signal (z-score),[1],-0.765
same,glycan array binding signal (z-score),[2],1.09
same,glycan array binding signal (z-score),[3],0.811
same,glycan array binding signal (z-score),[4],-0.436
same,glycan array binding signal (z-score),[5],-0.233
same,glycan array binding signal (z-score),[6],-0.595
same,glycan array binding signal (z-score),[7],0.39
same,glycan array binding signal (z-score),[8],-0.799
same,glycan array binding signal (z-score),[9],-0.089
same,glycan array binding signal (z-score),[10],-0.48
same,glycan array binding signal (z-score),[11],-0.67
same,glycan array binding signal (z-score),[12],-0.988
same,glycan array binding signal (z-score),[13],-0.261
same,glycan array binding signal (z-score),[14],-0.696
same,glycan array binding signal (z-score),[15],-0.687
same,glycan array binding signal (z-score),[16],-0.486
same,glycan array binding signal (z-score),[17],-0.274
same,glycan array binding signal (z-score),[18],-0.424
same,glycan array binding signal (z-score),[19],-0.515
same,glycan array binding signal (z-score),[20],0.035
same,glycan array binding signal (z-score),[21],-0.446
same,glycan array binding signal (z-score),[22],-0.692
same,glycan array binding signal (z-score),[23],-0.601
same,glycan array binding signal (z-score),[24],0.747
same,glycan array binding signal (z-score),[25],-0.412
same,glycan array binding signal (z-score),[26],1.83
same,glycan array binding signal (z-score),[27],-0.695
same,glycan array binding signal (z-score),[28],1.11
same,glycan array binding signal (z-score),[29],0.585
same,glycan array binding signal (z-score),[30],-0.05
same,glycan array binding signal (z-score),[31],-0.946
same,glycan array binding signal (z-score),[32],0.126
same,glycan array binding signal (z-score),[33],-0.855
same,glycan array binding signal (z-score),[34],-0.342
same,glycan array binding signal (z-score),[35],-0.297
same,glycan array binding signal (z-score),[36],-0.094
same,glycan array binding signal (z-score),[37],0.136
same,glycan array binding signal (z-score),[38],0.221
